Assay results reported in PubChem BioAssay AID1508642 (National Center for Advancing Translational Sciences (NCATS), 2021).
The campaign covered roughly 43,000 compounds. About 200 (0.47%) were called active. Not shown: some 12% with an inconclusive outcome. Calls come from the whole dose curve; as a rule, active = well fitted cell-killing curve with a large enough effect; inconclusive = small, poorly fitted or top-dose-only effect, or effect the other way; inactive = flat fitted curve, though single readings scatter. The list shows a part of the results.
% is set by controls: 0 for no effect and ±100 for the full control effect; potency is the fitted concentration of half-maximal effect.

Assay: Cell viability qHTS assay in S16 Pmp22-F2sN cells; note: nearly all actives have a fitted effect of over 65% in size
Conditions: S16 Pmp22-F2sN Schwann cells (luciferase reporters placed in the Pmp22 gene) viability, CellTiter-Glo, 24 h; series mostly up to 57.5 µM; activity change, negative = cytotoxicity: at the top concentration
Summary of the method: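 Luminescence from CellTiter-Glo, read by CCD camera after a 15 min room-temperature incubation, served as the viability signal. Reporter Schwann cells (S16 Pmp22-F2sN) had been treated with pin-transferred compounds for 24 h at 37C.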
In the case of `Cc1ccc(C)c(Cn2c(=O)n(Cc3ccccc3)c(=O)c3c2c2cc(C)ccc2n3C)c1`, the “activity change, negative = cytotoxicity” value was inactive: 23.4%.
For `COc1cc(NC(=O)CNS(=O)(=O)c2cccs2)cc(OC)c1OC`, the “activity change, negative = cytotoxicity” value was inactive: 4.76%.
With `Fc1ccc(CSc2nc(NCc3ccccc3)c3ccccc3n2)cc1` the “activity change, negative = cytotoxicity” value was inactive: -12.1%.
In the case of `COc1ccc(-c2cc(C(=O)Nc3cccc(O)c3)on2)cc1OC`, the “activity change, negative = cytotoxicity” value was inactive: 4.6%.
For `COc1ccc(CNC(=O)Cn2c(=O)cc(C)c3c(C)nn(-c4cccc(Cl)c4C)c32)cc1`, the “activity change, negative = cytotoxicity” value was inactive: 6.53%.
In the case of `Cc1ccc(C(=O)Nc2ccc(S(=O)(=O)Nc3onc(C)c3C)cc2)cc1`, the “activity change, negative = cytotoxicity” value was inactive: 0.541%.
For `CCOC(=O)c1ccc(NC(=O)Cn2c(=O)cc(C(F)(F)F)c3c(C)nn(C)c32)cc1`, the “activity change, negative = cytotoxicity” value was inactive: 0.271%.
With `COc1ccccc1CCNC(=O)Cc1c(C)c2cc3c(C)coc3cc2oc1=O` the “activity change, negative = cytotoxicity” value was inactive: 16%.
For `O=C(c1cc2ccccc2oc1=O)N1CCN(c2ccc(F)cc2)CC1`, the “activity change, negative = cytotoxicity” value was inactive: -2.92%.
In the case of `Cc1cc(C)c2c(CC(=O)Nc3ccc(S(=O)(=O)N4CCCCC4)cc3)coc2c1`, the “activity change, negative = cytotoxicity” value was inactive: -3.31%.
In the case of `Cc1cccc(CSCc2ccc(C(=O)NCCc3ccccc3)o2)c1`, the “activity change, negative = cytotoxicity” value was inactive: 7.16%.
With `CCOC(=O)c1ccc(Nc2c(-c3cccc(O)c3)nc3nc[nH]n23)cc1` the “activity change, negative = cytotoxicity” value was inactive: -22.3%.
In the case of `CCN(CC)CCN(C(=O)c1ccco1)c1nc2cc(C)cc(C)c2s1`, the “activity change, negative = cytotoxicity” value was inactive: 2.36%.
In the case of `CCOc1cc(-c2ccc(OC(=O)c3ccc(C)cc3)c(OC)c2)cc(=O)c2c(C)oc(C)c12`, the “activity change, negative = cytotoxicity” value was inactive: -9.03%.
With `CC(=O)c1ccc(NC(=O)CN(C)S(=O)(=O)c2cc3c(cc2Cl)NC(=O)CO3)cc1` the “activity change, negative = cytotoxicity” value was inactive: -9.93%.
With `CCOc1ccc(OCC)c(NC(=O)C(NS(=O)(=O)c2cccs2)c2ccccc2)c1` (stereo unspecified) the “activity change, negative = cytotoxicity” value was inactive: 3.18%.
For `COc1ccc(C(=O)Nc2cc(S(=O)(=O)c3ccc(Cl)cc3)c(O)c(C)c2C)cc1`, the “activity change, negative = cytotoxicity” value was inactive: -4.52%.
In the case of `COc1ccccc1NC(=O)Cn1nc(-c2ccc(C)cc2)c2c(c1=O)CCCC2`, the “activity change, negative = cytotoxicity” value was inactive: 1.03%.
For `Cc1cccc(C)c1NC(=O)Cn1c(=O)n(Cc2ccc3c(c2)OCO3)c(=O)c2oc3ccccc3c21`, the “activity change, negative = cytotoxicity” value was inactive: -1.64%.
For `CCOc1cc(C(=O)Nc2ccc(-c3nc4ccccc4s3)cc2Cl)cc(OCC)c1OCC`, the “activity change, negative = cytotoxicity” value was inactive: 3.35%.
With `CCc1ccc(-n2nc3cc(C)c(NC(=O)c4cc(OC)cc(OC)c4)cc3n2)cc1` the “activity change, negative = cytotoxicity” value was inactive: -3.17%.
In the case of `Cc1ccc(CNC(=O)c2c(C)oc3nc(C)nc(N4CCOCC4)c23)cc1`, the “activity change, negative = cytotoxicity” value was inactive: 15.1%.
With `CCOc1ccc(S(=O)(=O)n2nc(C)c(S(=O)(=O)N3CCCCC3)c2C)cc1` the “activity change, negative = cytotoxicity” value was inactive: -1.71%.
In the case of `O=C(Nc1ccc(Cl)cc1C(F)(F)F)c1cc(S(=O)(=O)N2CCOCC2)ccc1F`, the “activity change, negative = cytotoxicity” value was inactive: -25.1%.
For `COc1cc(CN2CCc3nc(N4CCN(c5ccccn5)CC4)ncc3C2)cc(OC)c1OC`, the Potency was active: 11.2 µM.
In the case of `COC(=O)c1ccccc1NS(=O)(=O)c1ccc2c(c1)CCCN2C(C)=O`, the “activity change, negative = cytotoxicity” value was inactive: -0.366%.
In the case of `CC(=O)c1cc(-c2ccccc2)n(CCC(=O)NC(C)c2ccccc2)c1C` (stereo unspecified), the “activity change, negative = cytotoxicity” value was inactive: -15.8%.
For `COc1ccc(C(=O)Nc2cc3c(cc2N2CCCC2)n(C)c(=O)c(=O)n3C)cc1OC`, the “activity change, negative = cytotoxicity” value was inactive: -3.54%.
With `CCCC(=O)n1nc(-c2cccnc2)nc1NCc1ccc(OC)cc1` the “activity change, negative = cytotoxicity” value was inactive: -3.26%.
With `Cc1nn(CCCC(=O)NCc2ccccc2)c(=O)c2cc3sccc3n12` the “activity change, negative = cytotoxicity” value was inactive: 11.6%.
With `COc1ccc(N2CCN(c3ncnc4c3cnn4C)CC2)cc1` the “activity change, negative = cytotoxicity” value was inactive: -19.2%.
With `CCN(CC)S(=O)(=O)c1ccc2c(c1)N(CC(=O)Nc1ccccc1F)C(=O)C1CCCN21` (stereo unspecified) the “activity change, negative = cytotoxicity” value was inactive: 1.02%.
For `CCCNC(=O)Cn1c(=O)n(CC2CCC(C(=O)NC)CC2)c(=O)c2sccc21` (stereo unspecified), the “activity change, negative = cytotoxicity” value was inactive: -4.74%.
In the case of `Cc1ccc(NC(=O)/C(C#N)=C/c2ccc(-c3ccc(Cl)c(C(=O)O)c3)o2)cc1C`, the “activity change, negative = cytotoxicity” value was inactive: 7.47%.
In the case of `COc1ccc(Cn2c(C(=O)O)c(CNCCc3ccco3)c3ccc(OC)cc32)cc1`, the “activity change, negative = cytotoxicity” value was inactive: 0.7%.
In the case of `O=C1CS(=O)(=O)C2(C(=O)N(Cc3ccccc3Cl)c3ccccc32)N1c1ccc(F)cc1` (stereo unspecified), the “activity change, negative = cytotoxicity” value was inactive: 2.35%.
In the case of `CCOc1cccc(NC(=O)C2CC(=O)N(CC)C(=Nc3ccc(F)cc3)S2)c1` (stereo unspecified), the “activity change, negative = cytotoxicity” value was inactive: 24%.
In the case of `CCOc1ccc(CCNC(=O)c2cc3cccc4c3n2CCS4)cc1`, the “activity change, negative = cytotoxicity” value was inactive: -3.89%.
In the case of `COc1cccc(NC(=O)C2CCCN(S(=O)(=O)c3cn(C(C)C)cn3)C2)c1` (stereo unspecified), the “activity change, negative = cytotoxicity” value was inactive: -4.77%.
For `COCCCNC(=O)c1cc2cc(S(=O)(=O)N3CCCCC3)ccc2n1C`, the “activity change, negative = cytotoxicity” value was inactive: -6.55%.
For `Cc1cc(C)c(NC(=O)CSc2ncc3c(n2)-c2cc(Cl)ccc2N(C)S3(=O)=O)c(C)c1`, the “activity change, negative = cytotoxicity” value was inactive: 0.924%.
For `Cc1cccc(C(=O)Nc2ccc(S(=O)(=O)N3CCC(c4nc5ccccc5s4)CC3)cc2)c1`, the “activity change, negative = cytotoxicity” value was inactive: 5%.
For `CN(C(=O)CSc1nnc(NC(=O)Nc2ccccc2)s1)c1ccccc1`, the “activity change, negative = cytotoxicity” value was inactive: -10%.
In the case of `COc1cc2ccccc2cc1C(=O)Nc1cccc(-c2nc3cc(C)c(C)cc3o2)c1`, the “activity change, negative = cytotoxicity” value was inactive: 18%.
In the case of `O=C(NCC(c1cccnc1)N1CCc2ccccc21)c1cccc(Br)c1` (stereo unspecified), the “activity change, negative = cytotoxicity” value was inactive: -28%.
In the case of `CC(C)NC(=O)C1CCC(Cn2c(=O)c3sccc3n(Cc3ccc(F)cc3)c2=O)CC1` (stereo unspecified), the “activity change, negative = cytotoxicity” value was inactive: -0.165%.
With `COc1ccc(-n2ncc(C(=O)NCc3ccco3)c2C2CCN(C(=O)OC(C)(C)C)CC2)cc1` the “activity change, negative = cytotoxicity” value was inactive: 2.18%.
For `Brc1cccc(-c2nnn3c2nc(NCc2ccc4c(c2)OCO4)c2ccccc23)c1`, the “activity change, negative = cytotoxicity” value was inactive: 8.11%.
For `Cc1ccc(NC(=O)CSc2nnc3ccc4ccccc4n23)cc1`, the “activity change, negative = cytotoxicity” value was inactive: 2.87%.
In the case of `CCc1ccc(NC(=O)c2ccc(-c3ccccc3)s2)cc1`, the “activity change, negative = cytotoxicity” value was inactive: -5.21%.
With `O=C(NCCN1CCN(c2cccc(Cl)c2)CC1)Nc1ccccc1` the “activity change, negative = cytotoxicity” value was inactive: -16.9%.
With `O=C(CC1N=C2c3ccccc3N=C(SCc3ccc(F)cc3)N2C1=O)NCc1ccc2c(c1)OCO2` (stereo unspecified) the “activity change, negative = cytotoxicity” value was inactive: -12.5%.
For `Cc1cccc(NC(=O)c2ccc(-c3ccccc3)s2)c1`, the “activity change, negative = cytotoxicity” value was inactive: 2.75%.
In the case of `CCc1cnc2c(c1SCC(=O)NCc1ccccc1Cl)c(=O)n(C)c(=O)n2C`, the “activity change, negative = cytotoxicity” value was inactive: -2.55%.
In the case of `CCC(Oc1ccccc1)C(=O)Nc1nnc(S(=O)(=O)N(CC)CC)s1` (stereo unspecified), the “activity change, negative = cytotoxicity” value was inactive: -15%.
In the case of `CCOC(=O)C1CCN(c2ncnc3c2nc2n3CCCCC2)CC1`, the “activity change, negative = cytotoxicity” value was inactive: 23.9%.
With `Cc1cccc(C(=O)NCC(c2ccco2)S(=O)(=O)c2cccs2)c1` (stereo unspecified) the “activity change, negative = cytotoxicity” value was inactive: -14.2%.
For `Cn1c(=O)[nH]c2cc(-c3noc(-c4ccc(Br)cc4)n3)ccc21`, the “activity change, negative = cytotoxicity” value was inactive: 3.08%.
For `Cc1cccc(-c2nn3c(=O)cc(CN4CCN(C(=O)/C=C/c5ccccc5)CC4)nc3s2)c1`, the “activity change, negative = cytotoxicity” value was inactive: -6.26%.
With `CCC(C)c1ccc2oc(-c3ccc(NC(=O)c4cc5ccccc5o4)cc3)nc2c1` (stereo unspecified) the “activity change, negative = cytotoxicity” value was inactive: -3.18%.
For `CCCC(=O)Nc1nnc(S(=O)(=O)N(C)Cc2ccc(Cl)cc2)s1`, the “activity change, negative = cytotoxicity” value was inactive: -1.86%.
